Data taken from PubChem BioAssay AID588591 (National Center for Advancing Translational Sciences (NCATS), 2011).
The campaign covered roughly 390,000 compounds. About 4,700 (1.2%) were called active. The shares of active, inactive and inconclusive entries below differ from those in the screen. Calls follow the shape of the dose curve; as a rule, active = well fitted inhibition curve with a large enough effect; inconclusive = small, poorly fitted or top-dose-only effect, or another doubt; inactive = no such curve, though single readings can be large or run the other way. Where the call is inconclusive, the potency comes from a doubtful curve fit.

These molecules were tested against DNA polymerase eta (Homo sapiens) (UniProt Q9Y253) (assay: qHTS for Inhibitors of Polymerase Eta). Details: recombinant Pol eta, fluorescent DNA replication assay; series mostly up to 114 µM; activity change, negative = inhibition: at the top concentration.
How it was run: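 Pol eta at 10 nM preincubated with compounds 15 min at room temperature; reaction started with fluorescent substrate (50 nM final) and read kinetically at 0 and 10 min.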
% is scaled to controls: 0 for no effect and ±100 for the full control effect; potency is read from the fitted curve at half-maximal effect; tags tell the direction and shape of the fitted curve.

UniProt Q9Y253, sequence (Q9Y253 whole entry, looked up): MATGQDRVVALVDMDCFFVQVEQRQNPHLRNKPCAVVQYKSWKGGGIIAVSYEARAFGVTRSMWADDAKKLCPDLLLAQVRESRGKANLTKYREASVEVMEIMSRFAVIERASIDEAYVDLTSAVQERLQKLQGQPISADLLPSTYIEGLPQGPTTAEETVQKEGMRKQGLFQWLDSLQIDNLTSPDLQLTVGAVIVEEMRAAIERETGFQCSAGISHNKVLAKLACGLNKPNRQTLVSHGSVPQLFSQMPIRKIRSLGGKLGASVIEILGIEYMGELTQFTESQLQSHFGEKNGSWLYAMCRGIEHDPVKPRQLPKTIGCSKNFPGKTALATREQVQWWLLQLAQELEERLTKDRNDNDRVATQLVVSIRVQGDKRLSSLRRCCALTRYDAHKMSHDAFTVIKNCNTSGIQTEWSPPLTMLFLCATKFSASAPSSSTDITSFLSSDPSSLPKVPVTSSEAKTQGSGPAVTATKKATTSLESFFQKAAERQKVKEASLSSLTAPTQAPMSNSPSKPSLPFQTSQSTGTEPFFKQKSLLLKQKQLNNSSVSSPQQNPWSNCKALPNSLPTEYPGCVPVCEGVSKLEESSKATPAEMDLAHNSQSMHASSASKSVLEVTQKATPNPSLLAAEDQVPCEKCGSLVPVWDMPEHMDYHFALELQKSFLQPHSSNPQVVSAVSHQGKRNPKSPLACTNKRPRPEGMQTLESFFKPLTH

Row | Compound | Potency | activity change, negative = inhibition
1 | CC(=O)N1CN(C2CC(C)(C)NC(C)(C)C2)Cc2c1sc1c2CCCC1 | inconclusive: 5.62 µM [inhibitor, full curve, poor fit] | –
2 | COc1ccc(-c2cc(N)n(S(=O)(=O)c3c(F)c(F)c(F)c(F)c3F)n2)cc1OC | inconclusive: 22.4 µM [inhibitor, partial curve, poor fit] | –
3 | O=C1c2ccccc2NC(c2ccc(-c3cccc(F)c3)o2)N1O (configuration not stated) | inconclusive: 31.6 µM [inhibitor, partial curve, poor fit] | –
4 | Cc1ccc(NC(=O)CCn2cnc3cc(C)c(C)cc32)cc1 | – | inactive: -16.5%
5 | c1ccc(CSc2nnc3c(n2)OC(c2ccco2)Nc2ccccc2-3)cc1 (configuration not stated) | inconclusive: 31.6 µM [inhibitor, full curve] | –
6 | CCOC(=O)C1=C(O)/C(=C/c2cc(C)n(-c3ccccc3)c2C)N=C1C | inconclusive: 44.7 µM [inhibitor, partial curve, poor fit] | –
7 | CCCOc1ccc(C2c3c(-c4ccccc4O)n[nH]c3C(=O)N2CCCOCC)cc1OCC (configuration not stated) | – | inactive: -12.5%
8 | Cc1ccc2nc(-c3ccc(O)c(O)c3)cn2c1 | active: 22.4 µM | –
9 | COC(=O)Cc1c(C)c2ccc3c(c2oc1=O)CN(Cc1ccccc1OC)CO3 | – | inactive: -11.6%
10 | Cc1ccc(O)c(NC(=O)c2ccc3c(c2)C(=O)N(Cc2cccnc2)C3=O)c1 | inconclusive: 39.8 µM [inhibitor, partial curve] | –
11 | COc1cccc(NC(=O)CN(C)C(=O)/C=C/c2ccc3ccccc3n2)c1 | inconclusive: 15.8 µM [inhibitor, partial curve, poor fit] | –
12 | Cc1cc(N2CCN(c3ccc(F)cc3)CC2)nc(-c2ccccc2)n1 | inconclusive: 56.2 µM [inhibitor, partial curve, poor fit] | –
13 | NNC(=S)Nc1cccc(-c2n[nH]c(=S)o2)c1 | active: 79.4 µM | –
14 | CCCc1c(C)[nH]c2ccc(C(=O)O)cc2c1=S | active: 3.16 µM | –
15 | O=C(Cc1ccc(F)cc1)NCCc1csc(-c2cccc(F)c2)n1 | inconclusive: 100 µM [inhibitor, single point] | –
16 | O=C(CSc1nnc(NC(=O)C2CC(=O)N(c3ccccc3)C2)s1)NCc1ccco1 (configuration not stated) | inconclusive: 56.2 µM [inhibitor, partial curve] | –
17 | COc1cc(C2C(C#N)=C(N)Oc3cc(O)ccc32)cc2c1OCO2 (configuration not stated) | – | inactive: -7.01%
18 | CCOc1ccc(-n2ccc(=O)c(C(=O)Nc3ccc(S(=O)(=O)Nc4ncccn4)cc3)n2)cc1 | inconclusive: 39.8 µM [inhibitor, single point] | –
19 | CCCCc1nc(NCCNC(=O)c2ccco2)c(C#N)c2c1CSC(C)(C)C2 | active: 89.1 µM | –
20 | O=C(CCl)N(Cc1cccc([N+](=O)[O-])c1)c1cccc(Cl)c1 | inconclusive: 50.1 µM [inhibitor, partial curve] | –
21 | O=C(Nc1ccc2nc(SCC(=O)N3CCCc4ccccc43)sc2c1)c1cccc(Cl)c1 | – | inactive: -6.43%
22 | Cc1cc(Cl)nc(Cl)c1C(=O)NCCc1ccccc1 | inconclusive: 89.1 µM [inhibitor, single point] | –
23 | Cc1ccccc1NC(=O)CN1C(=O)S/C(=C\c2cccn2-c2cccc(C(=O)O)c2)C1=O | active: 3.55 µM | –

Row | Compound | Potency | activity change, negative = inhibition
24 | CCOC(=O)c1c(/N=C/c2cccc([N+](=O)[O-])c2O)sc2c1CCC2 | inconclusive: 56.2 µM [inhibitor, partial curve, poor fit] | –
25 | COc1cccc(N2CCN(c3c(C#N)c(C(F)(F)F)nn3C)CC2)c1 | – | inactive: -5.3%
26 | CC1(C)C/C(=N\NC(=S)Nc2ccccc2F)c2cc(O)ccc2O1 | inconclusive: 79.4 µM [inhibitor, partial curve, poor fit] | –
27 | C/C=C/COC(=O)c1[nH]c2c(c1C)C(=O)CC(c1ccc(N(C)C)cc1)C2 (configuration not stated) | – | inactive: -10.2%
28 | COc1ccc(C(=O)NCc2nnc(SCC(=O)NC3CCCCC3)o2)cc1 | inconclusive: 79.4 µM [inhibitor, partial curve, poor fit] | –
29 | O=C(NCCc1ccccc1)c1c(O)c2cccc3c2n(c1=O)CC3 | – | inactive: 22.4%
30 | COc1cccc(-c2nnc(SCCOc3ccc4c(C)cc(=O)oc4c3)o2)c1 | inconclusive: 89.1 µM [inhibitor, partial curve] | –
31 | O=C1NN(c2ccccc2)C(=O)/C1=C/c1ccc(-c2cccc(C(=O)O)c2)o1 | active: 20 µM | –
32 | CC1=C(SCCC#N)S/C(=C2\SC(C)=C(SCCC#N)S2)S1 | inconclusive: 79.4 µM [inhibitor, single point] | –
33 | O=C(O)c1ccccc1-c1ccccc1C(=O)Nc1ccc(-c2nc3cc(Cl)ccc3o2)cc1 | inconclusive: 79.4 µM [inhibitor, partial curve, poor fit] | –
34 | COc1ccc(NC(=O)Cn2cnc3ccc(S(=O)(=O)N4CCC(C)CC4)cc3c2=O)cc1Cl | – | inactive: 1.07%
35 | COc1ccc(OC)c(NC(=O)c2nnn(CC(=O)Nc3ccc4c(c3)OCO4)c2N)c1 | active: 15.8 µM | –
36 | CCn1c(CSc2nnc3ccccn23)nc2cc(C(=O)O)ccc21 | inconclusive: 15.8 µM [inhibitor, full curve, poor fit] | –
37 | CCN(CC)CCNC(=O)c1ccc(-c2nc(CS(=O)(=O)c3ccc(C)cc3)c(C)o2)cc1 | – | inactive: -15%
38 | COc1ccccc1OCCn1c(C(C)Oc2ccccc2)nc2ccccc21 (configuration not stated) | inconclusive: 79.4 µM [inhibitor, partial curve, poor fit] | –
39 | C=CCn1c(COc2ccc(CC)cc2)nnc1SC/C(O)=C(\C#N)c1nc2ccccc2[nH]1 | inconclusive: 25.1 µM [inhibitor, partial curve, poor fit] | –
40 | Cc1oc(C(=O)O)cc1COc1ccc2c3c(c(=O)oc2c1)CCC3 | active: 17.8 µM | –
41 | Cc1ccc(S(=O)(=O)NC(=O)c2ccc(-c3ccc(C)c4ccccc34)o2)cc1 | active: 31.6 µM | –
42 | O=c1cc(-c2ccccc2)nc2nc(-c3ccco3)[nH]n12 | inconclusive: 31.6 µM [inhibitor, single point] | –
43 | Cc1ccccc1OCCC(=O)OCC(=O)N1c2ccccc2NC(=O)C1(C)C | inconclusive: 28.2 µM [inhibitor, full curve] | –
44 | O=S(=O)(Nc1ncnc2sccc12)c1cccc(F)c1 | inconclusive: 44.7 µM [inhibitor, partial curve, poor fit] | –
45 | Cc1cc(NC(=O)C2CC=CCC2C(=O)O)no1 (configuration not stated) | inconclusive: 25.1 µM [inhibitor, single point] | –
46 | Cc1oc(-c2ccc(F)cc2)cc1-c1nn2c(-c3ccoc3C)nnc2s1 | active: 7.94 µM | –

Row | Compound | Potency | activity change, negative = inhibition
47 | Cc1cc(NC(=O)c2cc3ccccc3o2)no1 | inconclusive: 39.8 µM [inhibitor, partial curve, poor fit] | –
48 | O=C(CSc1nnc(SCc2cccc3ccccc23)s1)Nc1ccc(C(=O)O)cc1 | – | inactive: 7.46%
49 | CNC(=S)Nc1cc(S(=O)(=O)Nc2cc(Cl)ccc2Cl)ccc1N1CCCC1 | inconclusive: 56.2 µM [inhibitor, partial curve, poor fit] | –
50 | O=C(c1coc(=O)c(Br)c1)N1CCCc2ccccc21 | active: 11.2 µM | –
51 | Cc1cccc(N2CCN(C(=O)c3cc4n(n3)C(C(F)(F)F)CC(c3ccco3)N4)CC2)c1C (configuration not stated) | inconclusive: 44.7 µM [inhibitor, partial curve, poor fit] | –
52 | Cc1ccccc1NC(=O)CSc1nc2ccc(NC(=O)c3ccccc3)cc2s1 | – | inactive: -26%
53 | CCOc1ccccc1-n1c(SCC(=O)Nc2ccc(CC)cc2)nc2n[nH]c(C)c2c1=N | – | inactive: -6.79%
54 | CCCCC(=O)OCC(=O)C1(O)Cc2c(O)c3c(c(O)c2C(OC2CC(NC(=O)C(F)(F)F)C(O)C(C)O2)C1)C(=O)c1c(OC)cccc1C3=O (configuration not stated) | – | inactive: -21.6%
55 | COc1cc(Cl)c(C)cc1NC(=O)CN(C)Cc1cccc(OC)c1OC | inconclusive: 79.4 µM [inhibitor, partial curve, poor fit] | –
56 | COc1ccc(C(C)=O)cc1CSc1nc2ccccc2c(=O)n1-c1ccccc1 | inconclusive: 14.1 µM [inhibitor, partial curve] | –
57 | CCn1c(SCC(=O)c2ccc(O)c(O)c2)nnc1-c1ccc(C)cc1 | active: 10 µM | –
58 | O[C@@H](CNC[C@H](O)c1ccccc1)c1ccccc1 | inconclusive: 39.8 µM [inhibitor, single point] | –
59 | Cc1sc2ncn(CC(=O)Nc3ccc(F)cc3Cl)c(=O)c2c1S(=O)(=O)N1CCN(c2ncccn2)CC1 | – | inactive: -15.4%
60 | COc1ccc(NC(=O)c2ccc3c(SCC(=O)O)c4c(nc3c2)CCCC4)cc1OC | – | inactive: -10%
61 | Cc1cc(N/N=C/c2ccc(O)cc2)nc(NS(=O)(=O)c2ccccc2)n1 | active: 20 µM | –
62 | COc1cc(/C=C/C(=O)OCC(=O)Nc2ccc(Cl)cn2)ccc1O | active: 56.2 µM | –
63 | CCSc1ncc(/C=N/Nc2ccc([N+](=O)[O-])cc2)n1C | inconclusive: 12.6 µM [inhibitor, partial curve, poor fit] | –
64 | CNC(=O)c1c(NC(=O)c2ccc(N3C(=O)CCC3=O)cc2)sc2c1CCCC2 | inconclusive: 35.5 µM [inhibitor, partial curve, poor fit] | –
65 | O=C(Nc1ccc(N2CCN(c3ccc(C(F)(F)F)cn3)CC2)nc1)c1cccs1 | inconclusive: 31.6 µM [inhibitor, partial curve, poor fit] | –
66 | COCOCCn1cc(CN2CCS(=O)(=O)N(Cc3ccc(-c4ccc(F)nc4)cc3)C(CC(C)C)C2=O)nn1 (configuration not stated) | inconclusive: 28.2 µM [inhibitor, partial curve, poor fit] | –
67 | CCn1c(SCC(=O)c2ccc3c(c2)Cc2ccccc2-3)nnc1-c1ccc(N)cc1 | – | inactive: -5.13%
